Data from patent US8586505B2 (SDS Biotech K. K., priority 2009, dated 2013).

Each compound was assayed on Aphis gossypii (assay: whole plant or invertebrate). Details: in Cucumis sativus, 48 h, read-out: Determination (mortality rate).
Description: A cucumber leaf section having a diameter of 3 cm was placed on a wet sponge in a plastic cup. Thereafter, five female adults of Aphis gossypii were released into the plastic cup, and they were then left at rest overnight. Thereafter, the number of new-born larvae was counted. 0.4 ml each of an agent solution prepared by diluting a 10% wettable powder of each compound shown in Table 1 to a concentration of 250 ppm was sprayed thereto. Two days later, the number of deaths was counted, and the mortality rate was then calculated.
Compound `C[Si](C)(C)C#CCCNc1ncnc2sccc12` [Compound No. 2, 4-(4-Trimethylsilanyl-3-butynylamino)thieno[2,3-d]pyrimidine] has a mortality at 250 ppm of 60 to 80%.
In the case of `C#CCCNc1ncnc2sccc12` [compound 1, 4-(3-butynylamino)thieno[2,3-d]pyrimidine], the mortality at 250 ppm is reported as 80 to 95%.
Compound `CC[Si](C#CCCNc1ncnc2sccc12)(CC)CC` [compound 3] has a mortality at 250 ppm of over 95%.
In the case of `CC(C)CC#CCCNc1ncnc2sccc12` [compound 7, 4-(6-Methyl-3-heptynylamino)thieno[2,3-d]pyrimidine], the mortality at 250 ppm is reported as over 95%.
`CC(C)(C)C#CCCNc1ncnc2sccc12` [compound 8] was tested, and the mortality at 250 ppm was 80 to 95%.
`C(#CCc1ccccc1)CCNc1ncnc2sccc12` [compound 9] gave a mortality at 250 ppm of 60 to 80%.
Compound `C(#Cc1ccccc1)CCNc1ncnc2sccc12` [compound 10, 4-(4-Phenyl-3-butynylamino)thieno[2,3-d]pyrimidine] has a mortality at 250 ppm of over 95%.
Work on `Fc1ccccc1C#CCCNc1ncnc2sccc12` [compound 11] yielded a mortality at 250 ppm of over 95%.
`Fc1cccc(C#CCCNc2ncnc3sccc23)c1` [compound 12] showed a mortality at 250 ppm of 80 to 95%.
For `Clc1cccc(C#CCCNc2ncnc3sccc23)c1` [compound 15], the mortality at 250 ppm was 60 to 80%.
In the case of `Cc1ccccc1C#CCCNc1ncnc2sccc12` [compound 17], the mortality at 250 ppm is reported as 80 to 95%.
For `COc1ccccc1C#CCCNc1ncnc2sccc12` [compound 21], the mortality at 250 ppm was over 95%.
`COc1cccc(C#CCCNc2ncnc3sccc23)c1` [compound 22] showed a mortality at 250 ppm of 80 to 95%.
`COc1ccc(C#CCCNc2ncnc3sccc23)cc1` [compound 23] was tested, and the mortality at 250 ppm was 80 to 95%.
In the case of `FC(F)(F)c1ccccc1C#CCCNc1ncnc2sccc12` [compound 25], the mortality at 250 ppm is reported as 60 to 80%.
With `COC(=O)c1ccc(C#CCCNc2ncnc3sccc23)cc1` [compound 31] the mortality at 250 ppm was 60 to 80%.
`FC(F)(F)Oc1ccccc1C#CCCNc1ncnc2sccc12` [compound 32] showed a mortality at 250 ppm of 80 to 95%.
Work on `FC(F)(F)Oc1cccc(C#CCCNc2ncnc3sccc23)c1` [compound 33] yielded a mortality at 250 ppm of 60 to 80%.
With `FC(F)(F)Oc1ccc(C#CCCNc2ncnc3sccc23)cc1` [compound 34] the mortality at 250 ppm was 60 to 80%.
`N#Cc1ccccc1C#CCCNc1ncnc2sccc12` [compound 35] was tested, and the mortality at 250 ppm was 60 to 80%.
With `N#Cc1cccc(C#CCCNc2ncnc3sccc23)c1` [compound 36] the mortality at 250 ppm was 60 to 80%.
`N#Cc1ccc(C#CCCNc2ncnc3sccc23)cc1` [compound 37] showed a mortality at 250 ppm of 60 to 80%.
For `OCc1ccccc1C#CCCNc1ncnc2sccc12` [compound 44], the mortality at 250 ppm was over 95%.
In the case of `CCOCc1ccccc1C#CCCNc1ncnc2sccc12` [compound 46], the mortality at 250 ppm is reported as over 95%.
With `FCc1ccccc1C#CCCNc1ncnc2sccc12` [compound 47] the mortality at 250 ppm was over 95%.
Compound `O=Cc1ccccc1C#CCCNc1ncnc2sccc12` [compound 48] has a mortality at 250 ppm of over 95%.
Compound `COCc1ccccc1C#CCCNc1ncnc2ccsc12` [compound 49] has a mortality at 250 ppm of over 95%.
`C(#Cc1cccs1)CCNc1ncnc2sccc12` [compound 53] was tested, and the mortality at 250 ppm was over 95%.
In the case of `C(#Cc1ccsc1)CCNc1ncnc2sccc12` [compound 54], the mortality at 250 ppm is reported as over 95%.
For `C#CCOCc1nc(C#CCCNc2ncnc3sccc23)cs1` [compound 74], the mortality at 250 ppm was 60 to 80%.
Compound `C#CCCNc1ncnc2ccccc12` [compound 86] has a mortality at 250 ppm of 60 to 80%.
With `C[Si](C)(C)C#CCCNc1ncnc2ccccc12` [compound 87] the mortality at 250 ppm was over 95%.
Compound `C(#CC1CC1)CCNc1ncnc2ccccc12` [compound 90] has a mortality at 250 ppm of 60 to 80%.
With `C(#CC1CCCCC1)CCNc1ncnc2ccccc12` [compound 91] the mortality at 250 ppm was over 95%.
`C/C(C#N)=C/C#CCCNc1ncnc2ccccc12` [compound 93] was tested, and the mortality at 250 ppm was 80 to 95%.
`C(#CC1=CCCCC1)CCNc1ncnc2ccccc12` [compound 94] was tested, and the mortality at 250 ppm was 60 to 80%.
With `FC(F)c1ccccc1C#CCCNc1ncnc2ccccc12` [compound 100] the mortality at 250 ppm was over 95%.
For `CCc1ccccc1C#CCCNc1ncnc2ccccc12` [compound 103], the mortality at 250 ppm was over 95%.
In the case of `CC(C)c1ccccc1C#CCCNc1ncnc2ccccc12` [compound 104], the mortality at 250 ppm is reported as 60 to 80%.
Work on `CSc1ccc(C#CCCNc2ncnc3ccccc23)cc1` [compound 117] yielded a mortality at 250 ppm of 60 to 80%.
`CN(C)S(=O)(=O)c1ccc(C#CCCNc2ncnc3ccccc23)cc1` [compound 122] showed a mortality at 250 ppm of 80 to 95%.
With `COCc1cc(Cl)ccc1C#CCCNc1ncnc2ccccc12` [compound 140] the mortality at 250 ppm was over 95%.
With `COCc1cccc(F)c1C#CCCNc1ncnc2ccccc12` [compound 141] the mortality at 250 ppm was over 95%.
`COCc1ccc(F)cc1C#CCCNc1ncnc2ccccc12` [compound 142] was tested, and the mortality at 250 ppm was over 95%.
In the case of `COCc1cc(C)ccc1C#CCCNc1ncnc2ccccc12` [compound 145], the mortality at 250 ppm is reported as over 95%.
`N#CCc1ccccc1C#CCCNc1ncnc2ccccc12` [compound 147] showed a mortality at 250 ppm of over 95%.
`COCOCc1ccccc1C#CCCNc1ncnc2ccccc12` [compound 148] gave a mortality at 250 ppm of over 95%.
Compound `COC(OC)c1ccccc1C#CCCNc1ncnc2ccccc12` [compound 149] has a mortality at 250 ppm of over 95%.
`CCOC(OCC)c1ccccc1C#CCCNc1ncnc2ccccc12` [compound 150] was tested, and the mortality at 250 ppm was over 95%.
For `CCOC(OCC)c1ccc(C#CCCNc2ncnc3ccccc23)cc1` [compound 151], the mortality at 250 ppm was over 95%.
With `CSCc1ccccc1C#CCCNc1ncnc2ccccc12` [compound 152] the mortality at 250 ppm was 60 to 80%.
With `OCCc1ccccc1C#CCCNc1ncnc2ccccc12` [compound 158] the mortality at 250 ppm was over 95%.
Work on `CN(C)c1ccc(C#CCCNc2ncnc3ccccc23)cc1` [compound 159] yielded a mortality at 250 ppm of 60 to 80%.
With `CC(=O)Nc1ccccc1C#CCCNc1ncnc2ccccc12` [compound 160] the mortality at 250 ppm was 60 to 80%.
`CN(C)S(=O)(=O)c1ccccc1C#CCCNc1ncnc2ccccc12` [compound 161] showed a mortality at 250 ppm of over 95%.
For `Fc1ccc(F)c(C#CCCNc2ncnc3ccccc23)c1` [compound 163], the mortality at 250 ppm was 60 to 80%.
Compound `Fc1ccc(C(F)(F)F)c(C#CCCNc2ncnc3ccccc23)c1` [compound 168] has a mortality at 250 ppm of 60 to 80%.
With `Fc1ccc(C#CCCNc2ncnc3ccccc23)c(C(F)(F)F)c1` [compound 169] the mortality at 250 ppm was 80 to 95%.
`N#Cc1cc(F)ccc1C#CCCNc1ncnc2ccccc12` [compound 170] was tested, and the mortality at 250 ppm was 80 to 95%.
With `FC(F)(F)c1cc(Cl)ccc1C#CCCNc1ncnc2ccccc12` [compound 178] the mortality at 250 ppm was 80 to 95%.
`Cc1ccc(C#CCCNc2ncnc3ccccc23)c(C)c1` [compound 180] showed a mortality at 250 ppm of over 95%.
For `COc1ccc2cc(C#CCCNc3ncnc4ccccc34)ccc2c1` [compound 184], the mortality at 250 ppm was 60 to 80%.
Work on `COCc1ccc2ccccc2c1C#CCCNc1ncnc2ccccc12` [compound 185] yielded a mortality at 250 ppm of 60 to 80%.
Work on `N#Cc1cc(C(F)(F)F)ccc1C#CCCNc1ncnc2ccccc12` [compound 187] yielded a mortality at 250 ppm of 60 to 80%.
`C(#Cc1ccc2ncccc2c1)CCNc1ncnc2ccccc12` [compound 190] showed a mortality at 250 ppm of 60 to 80%.
With `Fc1ccc(C#CCCNc2ncnc3ccccc23)cn1` [compound 194] the mortality at 250 ppm was 60 to 80%.
Work on `FC(F)(F)c1ccc(C#CCCNc2ncnc3ccccc23)nc1` [compound 197] yielded a mortality at 250 ppm of over 95%.
Work on `COc1cc(C#CCCNc2ncnc3ccccc23)ccn1` [compound 199] yielded a mortality at 250 ppm of 60 to 80%.
Compound `C(#Cc1cccs1)CCNc1ncnc2ccccc12` [compound 204] has a mortality at 250 ppm of 80 to 95%.
